PubChem BioAssay AID1460 (National Center for Advancing Translational Sciences (NCATS), 2008)
“And” between values parts separate entries of the source, which are not always exact repeats. Equal entries are not always repeated. Among all 270,000 compounds or so, about 5,800 (2.1%) were called active. The inconclusive results got no clear call from the source; some entries with a clear call stand among them for comparison. The call rests on the fitted dose curve; in most records, active means well fitted inhibition curve with a large enough effect; inconclusive means small, poorly fitted or top-dose-only effect; inactive means flat fitted curve, though single readings scatter. Potencies beside an inconclusive call are fits to weak or partial responses and may not hold up.

These compounds were tested against Microtubule-associated protein tau (Homo sapiens) (UniProt P10636) (assay: qHTS for Inhibitors of Tau Fibril Formation, Thioflavin T Binding). Conditions: recombinant tau K18 P301L (four-repeat tau fragment), heparin-induced fibrillization, ThT fluorescence; series mostly up to 57.4 µM.
Outline: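 Aggregation was driven by heparin (20 uM final) acting on recombinant tau […] bearing P301L in 100 mM sodium acetate pH 7; fibrils were detected with Thioflavin T.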
Further: nearly all actives have a fitted effect of over 55% in size.
Potency means the concentration at half of the fitted maximal effect; tags describe the fitted curve by direction and shape.

Sequence of UniProt P10636 (P10636 whole entry, looked up, the tested form may be a part): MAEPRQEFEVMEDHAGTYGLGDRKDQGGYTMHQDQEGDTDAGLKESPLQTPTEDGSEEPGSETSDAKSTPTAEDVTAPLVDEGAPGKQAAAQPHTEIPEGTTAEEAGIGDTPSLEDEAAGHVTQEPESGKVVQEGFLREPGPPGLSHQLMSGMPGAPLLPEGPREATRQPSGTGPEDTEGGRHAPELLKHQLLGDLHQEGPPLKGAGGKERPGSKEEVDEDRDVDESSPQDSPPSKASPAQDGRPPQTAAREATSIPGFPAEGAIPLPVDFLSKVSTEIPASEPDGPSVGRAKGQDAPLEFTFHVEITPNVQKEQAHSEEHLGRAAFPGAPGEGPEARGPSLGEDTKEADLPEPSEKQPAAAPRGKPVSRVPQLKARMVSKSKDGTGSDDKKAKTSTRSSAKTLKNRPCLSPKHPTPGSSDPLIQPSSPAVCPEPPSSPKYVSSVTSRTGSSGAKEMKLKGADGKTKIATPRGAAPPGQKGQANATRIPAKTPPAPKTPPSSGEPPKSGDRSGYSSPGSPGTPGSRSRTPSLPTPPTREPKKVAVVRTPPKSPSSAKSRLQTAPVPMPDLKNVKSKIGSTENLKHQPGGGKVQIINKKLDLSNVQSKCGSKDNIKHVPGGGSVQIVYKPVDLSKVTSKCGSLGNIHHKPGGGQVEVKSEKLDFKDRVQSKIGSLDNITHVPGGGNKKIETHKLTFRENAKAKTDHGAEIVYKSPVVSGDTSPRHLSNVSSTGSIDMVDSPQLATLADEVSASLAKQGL

SMILES | Potency
CCOC(=O)CSc1c(-c2cccs2)[nH]c2ccccc12 | inconclusive: 11.2 µM [inhibitor, partial curve]
O=C(NC(=S)N1CCN(C(c2ccccc2)c2ccccc2)CC1)c1ccc(S(=O)(=O)N2CCOCC2)cc1 | inactive
COc1ccc(OC)c(NC(=O)CSC2=C(C#N)C(c3ccco3)C3=C(CCCC3=O)N2)c1 (stereo not drawn) | inconclusive: 22.4 µM [inhibitor, partial curve, poor fit]
Cc1ccc(NC(=O)CSc2nnc3nc(C)cc(C)n23)cc1 | inactive
CCCCC/C=C\C/C=C\CCCCCCCCCC(=O)NCCCC(=O)O | inactive
Cc1ccc(-n2ncc(C(=O)NCCCN3CCCCC3)c2C2CCN(C(=O)OC(C)(C)C)CC2)c(C)c1 | inactive
Cc1ccccc1-n1nnnc1SCc1ncc(-c2ccccc2)o1 | inconclusive: 12.6 µM [inhibitor, partial curve]
O=C(Cc1ccc(Br)cc1)N1CCN(c2ccc(F)cc2)CC1 | inconclusive: 22.4 µM [inhibitor, partial curve]
CC(=O)c1ccc(N2CCN(c3ccc(NC(=O)c4cccs4)cc3C(=O)O)CC2)cc1 | inconclusive: 2.24 µM [inhibitor, partial curve]
Cc1ccc(C)c(N2CCN(C(=O)Nc3cn(CC(C)C)c(=O)c4ccccc34)CC2)c1 | inconclusive: 10 µM [inhibitor, partial curve]
CCOc1cc(NC(=O)c2ccccn2)c(OCC)cc1NC(=O)c1ccc(C)cc1 | inconclusive: 12.6 µM [inhibitor, partial curve]
Cn1nccc1C(=O)Nc1ccc(OC(=O)c2ccnn2C)cc1 | inactive
COCCNC(=O)/C(C#N)=C/c1ccc(OC(=O)c2cccs2)c(OC)c1 | inconclusive: 12.6 µM [inhibitor, partial curve]
Cn1c2ccc(CC(=O)O)cc2c2cc(CC(=O)O)ccc21 | inconclusive: 22.4 µM [inhibitor, partial curve, poor fit]
Cc1c(NC(=O)OCCSc2nc(N(C)C)nc(N(C)C)n2)sc(=S)n1C | inconclusive: 28.2 µM [inhibitor, partial curve]
COC(=O)CSc1nc2ccccc2nc1SCC(=O)OC | inactive
O=c1cc(CO)oc(C(Nc2ccccn2)c2ccc(C(F)(F)F)cc2)c1O (stereo not drawn) | inconclusive: 10 µM [inhibitor, partial curve]
O=C1CN(C(=O)COc2ccccc2F)c2ccccc2N1 | inactive
C=CCNC(=S)N/N=C(\C)c1cc(OC)c(OC)c(OC)c1 | inactive
COc1ccc(-c2cc(-c3ccc(N)cc3)nc(N)c2C#N)cc1OC | inconclusive: 25.1 µM [inhibitor, partial curve]
CCN(CC)c1ccc(/C=C2\CCC(/C=C(\C#N)C(=O)Nc3ccccc3F)=C2N2CCOCC2)cc1 | inconclusive: 8.91 µM [inhibitor, partial curve]
Cc1ccc(C(=O)CC(=O)COc2ccc(Cl)cc2)cc1 | inconclusive: 25.1 µM [inhibitor, partial curve]

SMILES | Potency
CC(=Nc1ccc(C)cc1)c1sc2ccccc2c1O | inconclusive: 6.31 µM [inhibitor, partial curve]
CCN(CC)S(=O)(=O)c1cccc(-c2nnc(SC(C)C(=O)NCCC3=CCCCC3)o2)c1 (stereo not drawn) | inconclusive: 31.6 µM [inhibitor, single point]
O=C1CN(/N=C/c2ccc(-c3ccc([N+](=O)[O-])cc3)o2)C(=O)N1 | active: 14.1 µM and active: 10 µM
Cc1ccc(C)c(C(=O)Cn2ncc(Cl)c(Cl)c2=O)c1 | inconclusive: 15.8 µM [inhibitor, partial curve]
CNc1oc(-c2ccc(C)cc2)nc1P(=O)(c1ccccc1)c1ccccc1 | inconclusive: 17.8 µM [inhibitor, partial curve]
CC(Cc1ccccc1)NC(=O)/C=C/c1ccc([N+](=O)[O-])cc1 (stereo not drawn) | inconclusive: 14.1 µM [inhibitor, partial curve]
O=C(O)C1C2C=CC(O2)C1C(=O)Nc1ccc(S(=O)(=O)N2CCc3ccccc32)cc1 (stereo not drawn) | inactive
CC(C)(C)C(=O)NC(=S)NNC(=O)c1sc2ccccc2c1Cl | inconclusive: 12.6 µM [inhibitor, partial curve]
CCc1nnc(NC(=O)c2ccc(S(=O)(=O)N(CC)Cc3ccccc3)cc2)o1 | inconclusive: 4.47 µM [inhibitor, partial curve]
CN(C)c1ccc(C(=O)/C=C/c2ccc(Br)cc2)cc1 | inconclusive: 1 µM [inhibitor, full curve]
Cc1cc(-n2c(SCC(=O)NCc3ccccc3)nc3ccsc3c2=O)ccc1Cl | inactive
Cc1ccc2c(c1)c(=O)c1ccccc1n2CCCC(=O)Nc1ccc(C)c(F)c1 | inconclusive: 2.82 µM [inhibitor, full curve]
Cc1ccc(/C=N/NC(=O)Cn2cnc3ccccc32)o1 | inactive
COc1cc(O)sc1C=Nc1ccc(Cl)cc1 | inconclusive: 12.6 µM [inhibitor, partial curve]
C=C[C@@H](C1=CC(=O)C(OC)=C(OC)C1=O)c1ccccc1 | active: 28.2 µM
CCc1ccc(OCC(=O)NC(=S)Nc2ccc(C(=O)O)cc2)cc1 | inconclusive: 12.6 µM [inhibitor, partial curve]
O=S(=O)(Nc1nccs1)c1ccc(NCc2cc(Br)cc(Br)c2O)cc1 | inconclusive: 39.8 µM [inhibitor, single point]
Cc1nnc2c(N3CCN(c4ccccc4F)CC3)nc3ccccc3n12 | inactive
COc1cccc(NC(=O)CSc2nnc(COc3ccc(Cl)cc3)o2)c1 | inconclusive: 6.31 µM [inhibitor, full curve, poor fit]
CCOc1ccc(NC(=S)N(CCc2c(C)[nH]c3ccc(C)cc23)Cc2ccncc2)cc1 | inconclusive: 12.6 µM [inhibitor, partial curve]
CCC(CC)c1nnc(NC(=O)c2c(C)nn(Cc3ccccc3Cl)c2C)s1 | inconclusive: 20 µM [inhibitor, partial curve]
